# Results taken from the supplement of paper PMC8047034.
# Counter-ions that a name gives are not always drawn. This is one part of the list. Repeats are few or missing, and single values can be far off.
# Experiments:
# OVCAR4 = assay: log2 surviving fraction (library drug vs vehicle, or drug + carboplatin vs carboplatin alone; relative to plate median); ovarian cancer lines: OVCAR4 is platinum-sensitive and Ov4Carbo platinum-resistant; higher = more cell survival; details: library drug concentration 10 µM, 7 days
# Ov4Carbo = assay: as above; details: library drug concentration 10 µM, 7 days
SMILES,log2 surviving fraction (OVCAR4; carboplatin co-treatment 0 µM),log2 surviving fraction (OVCAR4; carboplatin co-treatment 5 µM),log2 surviving fraction (Ov4Carbo; carboplatin co-treatment 0 µM),log2 surviving fraction (Ov4Carbo; carboplatin co-treatment 5 µM)
Cc1ncc([N+](=O)[O-])n1CCO [Metronidazole (Flagyl)],-0.262,0.113,0.324,0.239
CCOC(=O)[C@H](CCc1ccccc1)N[C@@H](C)C(=O)N1[C@H](C(=O)O)C[C@@H]2CCC[C@@H]21 [Ramipril (Altace)],-0.551,-1.81,0.52,0.348
O=C(O)c1cc(/N=N/c2ccc(S(=O)(=O)Nc3ccccn3)cc2)ccc1O [Sulfasalazine (Azulfidine)],-4.07,1.33,0.898,0.372
O=C(OCC(O)CO)c1ccccc1Nc1ccnc2cc(Cl)ccc12 (stereo unspecified) [Glafenine HCl],-0.379,-0.25,-0.446,-0.127
CCCCC(C)(O)C/C=C/[C@H]1[C@H](O)CC(=O)[C@@H]1CCCCCCC(=O)OC (mixture of isomers) [Misoprostol],-1,1.37,-0.512,-2.39
Clc1ccccc1CN1CCc2sccc2C1 [Ticlopidine HCl],0.157,0.856,0.797,-0.173
C#C[C@]1(O)CC[C@H]2[C@@H]3CCc4cc(O)ccc4[C@H]3CC[C@@]21C [Ethinyl Estradiol],-1.53,-2.52,-0.934,-2.04
O=S(=O)(F)Cc1ccccc1 [PMSF (Phenylmethylsulfonyl Fluoride)],0.613,0.355,-0.27,0.154
C[C@@H]1C[C@H]2[C@@H]3CCC4=CC(=O)C=C[C@]4(C)[C@@]3(Cl)[C@@H](O)C[C@]2(C)[C@@]1(OC(=O)c1ccco1)C(=O)CCl [Mometasone furoate],-2.91,-3.3,-2.49,-1.76
